Laboratory results reported in the supplement of paper PMC11417369.
This is one part of the list.

tested on: PfAP2-HC AP2 domain (GST-tagged); test: gcPBM binding intensity (ln(normalized median fluorescence intensity)); higher = stronger DNA binding
How it was run: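 Each value is the highest Masliner-normalised natural-log median intensity across replicate spots of either orientation of a probe. The probes were primer-extended double-stranded 36-bp intergenic genomic sequences on an Agilent 4 × 180k array, alongside negative controls, exposed for 1 h to GST-tagged P. falciparum DNA-binding domains expressed in E. coli. Bound protein was picked up with Alexa488 anti-GST antibody and scanned at 488 nm.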

Sequence | gcPBM binding intensity (ln)
TTTATTTTGACAGATTGTACACTTTATACATGTTTT [XGTACX_site2356] | 9.85
GTATATATTTCCAGAAGTACTTATTTTTATGTATGT [XGTACX_site4079] | 9.71
TTATATTTATTGATATGTACATATTATAATTAATTA [XGTACX_site586] | 9.54
TGATTACATATGATGTGTACCTAATTTTGTTTACAC [XGTACX_site7032] | 10
AAAAATGCCAGAAAACGTACTCGGATTTTCTAATAT [XGTACX_site6552] | 9.49
AAAACACGCGGACACACACACACACCCACCCATATA [CACACA_site8688] | 11.6
TTTTAATATTTTGCCTGTACATAAAAGTGAGAAGAT [XGTACX_site2503] | 9.64
ACTATATATATAAGTGCATGTTCATTATACCTAAAG [TGCATGCA_site696] | 9.77
AAAAATTCATTTTTATGTACGTACAAATTCTTCGTT [XGTACX_site2471] | 9.57
TTTTAAAAAAATATAATACACACCAAAAATATGCAC [CACACA_site2131] | 9.78
AGTAAATTATATATCTGTACATATATATATGTGTAT [XGTACX_site5519] | 9.77
CTCACAAATGAATACACACAAACATATATATTTATA [CACACA_site1620] | 10.1
TGGAATAATACGCGTACACACATATAAATATTAATA [CACACA_site6211] | 10.1
ACACATGAATATTGTAGTACGGCAATTAATATAATA [XGTACX_site4589] | 9.78
ATATAATGGCTAAATAGTACAATATAATATTTTTTA [XGTACX_site8922] | 9.5
AGAAAGGAAAAAACCTCACACATGCTTTTAATAGTA [CACACA_site4602] | 9.78
CTATTCTATTTTTATTGTACATATATATAATTTGAA [XGTACX_site389] | 9.56
AAAAAAATATAAATACGTACATATATATATATATAT [XGTACX_site432] | 10.2
ATTACCAACAGATCTTGTACATATTAAAGCATCTTA [XGTACX_site2361] | 9.51
TAAGTACGACTTGACACACATACACATATATATATA [CACACA_site1286] | 9.81
CAAATACACCAACACACACACACAAAAAAAAAAAAA [CACACA_site514] | 11.3
TGAAAGAATAGAATGAGTACTAATTTAAATTACACT [XGTACX_site1120] | 9.68

Sequence | gcPBM binding intensity (ln)
TTGATTTCATTTTAAGTGCATAACTAATATTATATA [GTGCAC_site9713] | 9.46
TTCTTTATATATTTTTGTACATATTTATTTTTAGAG [XGTACX_site6757] | 9.93
ATATACAAAGAAGCAGTGCATATTTTCTTATTTATG [GTGCAC_site9567] | 9.61
TCTTTGGTAATATATATGTATAAATATAAATATATA [CACACA_negctrl_site1566] | 9.37
ATATATATATATGTTAGTACATAACAAGTGTGCATA [XGTACX_site1527] | 10
ATAAAACAAGCAAATCGTACAAAAGGATAATATATA [XGTACX_site5592] | 10.1
ATGTATGGTTTATATGTTCATTTGTTCACCTATTTA [CACACA_negctrl_site1533] | 9.93
AAAAAAAAAAAAAACACACACACACCCATACCCATA [CACACA_site5577] | 10.5
TTAGGTAGAAAAAAGACACACACATTATATATATAT [CACACA_site8016] | 10.8
ATATATATTTAAGAGGGTACAAAAATTTATGAGCAT [XGTACX_site6156] | 9.69
TGTGCTTATCCTAACACACACAACATATAAGAAAAA [CACACA_site3319] | 9.92
AAAAAATAAAAAATATGTACACATTCAAAATTTTAC [XGTACX_site8479] | 9.71
TATACATATTTATACACACACACATATATTTATATA [CACACA_site6727] | 10.3
AAAAAGAAAAAAAACACACACAAATATAAATAAATA [CACACA_site1183] | 10.2
ATATATATATATATATGTACATATTACATTACTTAT [XGTACX_site749] | 9.71
GATAAAATGAGACCAGTGCATTATTAGTTGTACACC | 9.73
TTTTTTGCTAAGTGTACACAAATGTTTATTAATTTA [CACACA_site5859] | 9.58
TTATGTTGTAAATGCACACATACAAATACATATACA [CACACA_site1368] | 9.75
TACAATATAAAATACACACGCACACCGAAAAAAAAA [CACACA_site5865] | 10.3
TTTTCTATATAGTGTTGTACATTATTGTGTAAAAAT [XGTACX_site3223] | 9.69
ATAAAATTGGAGCAAACACACAAGGTTGAAATTAAC [CACACA_site506] | 9.97
ATATTTTATACTTGCACACAAAATATATTAAAATGG [CACACA_site5139] | 9.67
